Publication PMC9911399, “Two distinct binding modes provide the RNA-binding protein RbFox with extraordinary sequence specificity”
Where a chain is given by its changes, count along the chain named. The list shows a part of the results.

T1: RBFOX1 RRM RbFoxmut (Fox-RRM*) (Homo sapiens, UniProt Q9NWB1 109-208, R118D;E147R;N151S;E152T)
T1 sequence: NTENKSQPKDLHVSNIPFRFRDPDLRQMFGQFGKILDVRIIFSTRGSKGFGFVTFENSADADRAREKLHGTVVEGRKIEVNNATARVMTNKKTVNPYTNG

B1: GGAGGUG (DNA:RNA)
RNA: GGGAGACCGGAAUUCAGAUUGUCCGGAGGUGUUAAAUCCCGUCGUAGCCACCA
DNA 1: CAATCTGAATTCCGGTCTCCC
DNA 2: TGGTGGCTACGACGGGATT
B2: AAUGGUC (DNA:RNA)
RNA: B1 RNA with G25A, G26A, A27U, G31C
DNA 1: CAATCTGAATTCCGGTCTCCC
DNA 2: TGGTGGCTACGACGGGATT
B3: AAUUGUC (DNA:RNA)
RNA: B1 RNA with G25A, G26A, A27U, G28U, G31C
DNA 1: CAATCTGAATTCCGGTCTCCC
DNA 2: TGGTGGCTACGACGGGATT
B4: GAAGUUU (DNA:RNA)
RNA: B1 RNA with G26A, G29U, G31U
DNA 1: CAATCTGAATTCCGGTCTCCC
DNA 2: TGGTGGCTACGACGGGATT
B5: GAGAUUA (DNA:RNA)
RNA: B1 RNA with G26A, A27G, G28A, G29U, G31A
DNA 1: CAATCTGAATTCCGGTCTCCC
DNA 2: TGGTGGCTACGACGGGATT
B6: CUUCUCA (DNA:RNA)
RNA: GGGAGACCGGAAUUCAGAUUGUCCCUUCUCAUUAAAUCCCGUCGUAGCCACCA
DNA 1: CAATCTGAATTCCGGTCTCCC
DNA 2: TGGTGGCTACGACGGGATT
B7: GGUUGGU (DNA:RNA)
RNA: B1 RNA with A27U, G28U, U30G, G31U
DNA 1: CAATCTGAATTCCGGTCTCCC
DNA 2: TGGTGGCTACGACGGGATT
B8: CCGGUCG (DNA:RNA)
RNA: B6 RNA with U26C, U27G, C28G, A31G
DNA 1: CAATCTGAATTCCGGTCTCCC
DNA 2: TGGTGGCTACGACGGGATT
B9: ACAAAGG (DNA:RNA)
RNA: B1 RNA with G25A, G26C, G28A, G29A, U30G
DNA 1: CAATCTGAATTCCGGTCTCCC
DNA 2: TGGTGGCTACGACGGGATT

The binders below were run against T1, RBFOX1 RRM RbFoxmut (Fox-RRM*) (assay: EMSA; HiTS-Eq, 1 nM pool, 10 min; buffer printed only for the single-RNA assays: 10 mM Tris pH 7.5, 150 mM NaCl, 3.4 mM EDTA, 0.001% NP-40, 30 C). Conditions: tags: His6 N-terminal (pET28a); label: 5' 32P.
In short: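 Relative association constants, normalised to the cognate motif, were derived by comparing read counts of each RNA species with those of the control reaction. The RNA sequenced was the free fraction, separated by 8% native PAGE after a 10 min equilibration in 50 µL of 1 nM 5′-radiolabelled RNA (7 randomized nucleotides) with increasing concentrations of purified wild-type or mutant RbFox RRM.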

| Binder | binding signal |
| --- | --- |
| B1 | 0.142 KA relative to UGCAUGU |
| B2 | 0.1 KA relative to UGCAUGU |
| B3 | 0.189 KA relative to UGCAUGU |
| B4 | 0.0901 KA relative to UGCAUGU |
| B5 | 0.151 KA relative to UGCAUGU |
| B6 | 0.121 KA relative to UGCAUGU |
| B7 | 0.139 KA relative to UGCAUGU |
| B8 | 0.112 KA relative to UGCAUGU |
| B9 | 0.0691 KA relative to UGCAUGU |
